According to the supplement of paper PMC9446081:
About 220 (0.56%) of roughly 39,000 compounds showed activity. Some of the results follow.

test system: Escherichia coli K-12 BW25113; assay: relative growth (OD600 normalised to plate interquartile mean) (fraction); higher = less growth inhibition, active = 0.2 or less; settings: 50 µM; LB; incubation time: overnight (16-24 h)
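Also: static incubation at 37 °C against the wild-type strain, values averaged over two biological replicates.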

Row | SMILES | relative growth
1 | C[C@H]1CN([C@@H](C)CO)C(=O)c2cccc(NC(=O)C3CCOCC3)c2O[C@@H]1CN(C)Cc1ccc(-c2ccccc2)cc1 | inactive: 1.03
2 | C[C@H]1CN([C@@H](C)CO)C(=O)c2cccc(NC(=O)Nc3ccc(F)cc3)c2O[C@H]1CN(C)Cc1ccc(Oc2ccccc2)cc1 | inactive: 1.04
3 | CCN(Cc1ccncc1)C(=O)C(CO)c1ccccc1 (stereo not drawn) | inactive: 0.973
4 | Cc1ncc(NC(=O)c2cccc(C(F)(F)F)c2)cc1-c1cnc(OC2CCOCC2)c(N2CCOCC2)c1 | inactive: 0.996
5 | COc1ccc2c3c(ccc2c1)-c1[nH]c2ccccc2c1CC3 | inactive: 0.885
6 | Cc1cccc(C)c1OC[C@@H](C)N | inactive: 0.984
7 | C[C@H](CO)N1C[C@H](C)[C@@H](CN(C)S(=O)(=O)c2ccccc2F)Oc2ncc(C#Cc3ccccc3)cc2C1=O | inactive: 1.02
8 | CS(=O)(=O)N1CCCCC1 | inactive: 1.01
9 | C[C@@H]1CN([C@H](C)CO)C(=O)c2cc(NC(=O)Nc3ccc(C(F)(F)F)cc3)ccc2O[C@@H](C)CCCCO[C@@H]1CN(C)S(=O)(=O)c1ccc(Cl)cc1 | inactive: 1.01
10 | CC(C)NC(=O)N(C)C[C@@H]1Oc2ccc(NS(=O)(=O)c3cn(C)cn3)cc2CC(=O)N([C@@H](C)CO)C[C@H]1C | inactive: 0.983
11 | C[C@H]1CN([C@@H](C)CO)C(=O)c2cc(NC(=O)c3ccncc3)ccc2O[C@@H]1CN(C)S(=O)(=O)c1ccccc1 | inactive: 0.983
12 | CC(C)CNC(=O)[C@@]1(c2ccc([N+](=O)[O-])cc2)CC(=O)N(CC23CC4CC(CC(C4)C2)C3)[C@@H]1c1ccc(CO)cc1I | inactive: 1
13 | C[C@H]1CN([C@@H](C)CO)C(=O)c2cc(NS(=O)(=O)c3cccs3)ccc2O[C@H]1CN(C)Cc1ccc(Oc2ccccc2)cc1 | inactive: 0.978
14 | CN1CCN(C(=O)[C@@H]2[C@@H](CO)[C@@H]3Cn4c(ccc(C5=CCCC5)c4=O)[C@H]2N3S(C)(=O)=O)CC1 | inactive: 0.98
15 | CC(=O)n1cc([C@@H]2C=C(C(=O)N3CCN(Cc4ccccc4)CC3)O[C@H](OCc3ccc(COC(=O)NCCCCCC(=O)NO)cc3)C2)c2ccccc21 | inactive: 0.999
16 | C[C@@H]1CCCCO[C@@H](CN(C)C(=O)Nc2ccc(F)cc2)[C@H](C)CN([C@@H](C)CO)C(=O)c2cc(NC(=O)c3ccncc3)ccc2O1 | inactive: 0.958
17 | C[C@@H]1CN([C@@H](C)CO)C(=O)c2cccc(N(C)C)c2O[C@H]1CN(C)S(C)(=O)=O | inactive: 0.987
18 | CNC(=O)c1c(C)noc1C | inactive: 1
19 | C[C@H](CO)N1C[C@H](C)[C@@H](CN(C)C(=O)Nc2ccc(C(F)(F)F)cc2)OCCCC[C@H](C)Oc2ccc(NC(=O)Cc3ccccc3)cc2C1=O | inactive: 1.01

Row | SMILES | relative growth
20 | C[C@H](CO)N1C[C@H](C)[C@H](CN(C)S(=O)(=O)c2cccc(F)c2)Oc2ncc(C#CC3CCCC3)cc2C1=O | inactive: 1.01
21 | Cc1noc(C)c1NC(=O)Nc1ccc2c(c1)CC(=O)N([C@H](C)CO)C[C@H](C)[C@H](CN(C)Cc1ccc(C(F)(F)F)cc1)O2 | inactive: 1.03
22 | CCc1nc2ccc(C(=O)Nc3cccc(OCC(=O)N(C)C)c3)cn2c1N(C)CCN1CCOCC1 | inactive: 0.993
23 | C[C@H](CO)N1C[C@H](C)[C@@H](CN(C)S(C)(=O)=O)Oc2c(NC(=O)Nc3ccc4c(c3)OCO4)cccc2C1=O | inactive: 0.991
24 | O=C(C[C@H]1C=C[C@H](NC(=O)CN2CCOCC2)[C@H](CO)O1)NCc1cccc(F)c1 | inactive: 1.02
25 | C[C@H](CO)N1C[C@H](C)[C@@H](CN(C)Cc2ccc(-c3ccccc3)cc2)OCc2ccccc2-c2c(n(C)c3ccccc23)C1=O | inactive: 0.988
26 | C[C@@H]1CN([C@H](C)CO)C(=O)c2cc(C#Cc3ccccc3F)cnc2O[C@H]1CN(C)S(=O)(=O)c1ccccc1 | inactive: 1.01
27 | CC1=C(/C=C/C(C)=C/C=C/C(C)=C/C=C/C=C(C)/C=C/C=C(C)/C=C/C2=C(C)C(=O)C(O)CC2(C)C)C(C)(C)CC(O)C1=O (stereo not drawn) | inactive: 0.989
28 | C[C@@H]1CN([C@@H](C)CO)C(=O)Cc2cc(NC(=O)CCCN(C)C)ccc2O[C@@H]1CN(C)S(=O)(=O)c1ccc(F)cc1 | inactive: 0.999
29 | C[C@@H]1CN([C@@H](C)CO)C(=O)c2cc(C#CC3CC3)cnc2O[C@@H]1CN(C)S(=O)(=O)c1cccc(F)c1 | inactive: 1.01
30 | C[C@@H]1CN([C@H](C)CO)C(=O)c2cccc(NC(=O)CCCCCC(=O)Nc3ccccc3N)c2O[C@@H]1CN(C)S(=O)(=O)c1cn(C)cn1 | inactive: 1.03
31 | C[C@@H]1CN([C@@H](C)CO)C(=O)CCCn2nncc2CO[C@@H]1CN(C)C(=O)Nc1ccc2c(c1)OCCO2 | inactive: 0.997
32 | Cn1cnc(CCNC(=O)C[C@@H]2CC[C@@H]3[C@H](COC[C@@H](O)CN3C(=O)C3CC3)O2)c1 | inactive: 0.994
33 | Cc1ccc(S(=O)(=O)N(C)C[C@@H]2Oc3ccc(NC(=O)C4CC4)cc3C(=O)N([C@@H](C)CO)C[C@H]2C)cc1 | inactive: 1.02
34 | CC1(C)CCC2(C(=O)O)CCC3(C)C(=CCC4C5(C)CCC(O)C(C)(CO)C5CCC43C)C2C1 (stereo not drawn) | inactive: 0.737
35 | CO[C@H]1C[C@H](O[C@H]2[C@H](C)[C@@H](O[C@H]3O[C@H](C)C[C@H](N(C)C)[C@H]3O)[C@@H](C)C[C@]3(CO3)C(=O)[C@H](C)[C@@H](O)[C@@H](C)[C@@H](C)OC(=O)[C@@H]2C)O[C@@H](C)[C@@H]1O | inactive: 0.954
36 | COc1ccc(NC(=O)Nc2ccc3c(c2)C(=O)N([C@@H](C)CO)C[C@H](C)[C@H](CN(C)C(=O)Cc2ccccc2)OCCCC[C@@H](C)O3)cc1 | inactive: 0.99
37 | C[C@H](CO)N1C[C@H](C)[C@@H](CN(C)C(=O)Cc2ccccn2)Oc2cc(-c3cccc(C(=O)N(C)C)c3)ccc2S1(=O)=O | inactive: 1.02
38 | COc1ccc(S(=O)(=O)Nc2cccc3c2O[C@@H](CN(C)Cc2ccc(-c4ccccc4)cc2)[C@@H](C)CN([C@H](C)CO)C3=O)cc1 | inactive: 1.04
